Measurements as given in patent US20230285514A1, “STAPLED LACTAM CO-AGONISTS OF THE GLUCAGON AND GLP-1 RECEPTORS” (Merck Sharp & Dohme LLC, priority 2019, published 2023).
Not every detail of the peptide structures is certain; ends, links or a residue may be inferred. *1 amine or outer side, *2 acyl side, *3 side chain or, on linkers, in order; H or OH if unused. Where a SMILES comes first, the peptide text is derived from it. Bridges are numbered along the chain shown (N, C = ends). Side-chain parts run from the residue outwards. [ ]: non-standard residue; d: D form. The star is where a group is joined. γGlu = O=C(O)[C@H](CCC(=O)[*:2])N[*:1]; Met(O2) = CS(=O)(=O)CC[C@H](N)C(=O)O; Palmitoyl = CCCCCCCCCCCCCCCC(=O)*; Aib = CC(C)(N)C(=O)O

Target: T1, human GCGR (Homo sapiens, UniProt P47871)
T1 construct: expressed in transfected cells
Assay: cAMP activity assay, cells expressing human GCGR
Type: cell-based
Conditions: ratio of human GCGR EC50 to human GLP1R EC50
Method: Activity of the peptides at the Glucagon receptor (GCGR) and GLP-1 receptor (GLP1R) was measured in a cAMP activity assay. Peptides were dissolved in 100% DMSO and serially diluted to generate 10 point titrations. The peptide solutions were then transferred into 384-well assay plates (150 nL/well). Assay ready frozen cells expressing human GLP1R or human GCGR were suspended in growth media consisting of DMEM medium (GIBCO), 10% FBS (GIBCO), 1×NEAA(GIBCO), 1×P/S (GIBCO), 10 ug/ml Blasticidin (GIBCO) and 200 μg/mL Hygromycin (GIBCO). […] The cell suspensions (15 μL) were then added to the assay plates containing the peptide solutions (30,000 cells/well for human GCGR; 10,000 cells/well for human GLP1R). […] Production of cAMP was determined using […] kits (DiscoverX) following manufacturer protocol. The plates were incubated for overnight at room temperature in the dark. Luminescence was measured using an EnVision Multilabel plate reader (Perkin Elmer). Native GLP-1 and Glucagon (Bachem) are used as control peptides.

T1 sequence (P47871 26-477): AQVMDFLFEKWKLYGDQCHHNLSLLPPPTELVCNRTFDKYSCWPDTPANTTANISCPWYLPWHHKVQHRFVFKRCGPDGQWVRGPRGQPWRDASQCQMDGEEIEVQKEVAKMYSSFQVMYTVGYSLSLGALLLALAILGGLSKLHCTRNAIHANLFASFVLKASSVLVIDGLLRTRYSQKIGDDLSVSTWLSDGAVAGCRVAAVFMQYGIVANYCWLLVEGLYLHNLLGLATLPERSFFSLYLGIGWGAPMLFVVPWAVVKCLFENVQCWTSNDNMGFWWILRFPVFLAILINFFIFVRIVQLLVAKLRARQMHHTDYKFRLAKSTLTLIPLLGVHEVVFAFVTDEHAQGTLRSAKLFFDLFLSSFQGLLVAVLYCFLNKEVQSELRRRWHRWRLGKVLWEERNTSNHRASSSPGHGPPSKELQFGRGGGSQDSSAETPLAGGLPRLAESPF

Row | SMILES | hGCGR/hGLPIR (hTone)
1 | CCCCCCCCCCCCCCCC(=O)N[C@@H](CCC(=O)N[C@@H](CCC(=O)NCCCC[C@H](NC(=O)[C@H](CC(=O)O)NC(=O)[C@H](CO)NC(=O)[C@@H](NC(=O)[C@H](Cc1ccccc1)NC(=O)[C@@H](NC(=O)CNC(=O)[C@H](CCC(N)=O)NC(=O)C(C)(C)NC(=O)[C@@H](N)Cc1c[nH]cn1)[C@@H](C)O)[C@@H](C)O)C(=O)N[C@@H](CO)C(=O)N[C@@H](CCCCN)C(=O)N[C@@H](Cc1ccc(O)cc1)C(=O)N[C@@H](CC(C)C)C(=O)N[C@@H](CC(=O)O)C(=O)NC(C)(C)C(=O)N[C@@H](CCCNC(=N)N)C(=O)N[C@@H](C)C(=O)N[C@@H](C)C(=O)N[C@@H](CCC(N)=O)C(=O)N[C@@H](CC(=O)O)C(=O)N[C@@H](Cc1ccccc1)C(=O)N[C@H](C(=O)N[C@H]1CCCCNC(=O)CC[C@@H](C(=O)N[C@H](C(=O)N[C@@H](CCCCN)C(=O)N[C@@H](CCC(N)=O)C(=O)O)[C@@H](C)O)NC(=O)[C@H](CCS(C)(=O)=O)NC(=O)[C@H](CC(C)C)NC(=O)[C@H](Cc2c[nH]c3ccccc23)NC1=O)C(C)C)C(=O)O)C(=O)O [SEQ ID NO: 20] (H-H[Aib]QGTFTSDK([γGlu-γGlu-Palmitoyl])SKYLD[Aib]RAAQDFVKWL[Met(O2)]ETKQ-OH; lactam 24-28; N-terminus assumed) | 1.04
2 | CCCCCCCCCCCCCCCC(=O)N[C@@H](CCC(=O)N[C@@H](CCC(=O)NCCCC[C@H](NC(=O)[C@H](CC(=O)O)NC(=O)[C@H](CO)NC(=O)[C@@H](NC(=O)[C@H](Cc1ccccc1)NC(=O)[C@@H](NC(=O)CNC(=O)[C@H](CCC(N)=O)NC(=O)C(C)(C)NC(=O)[C@@H](N)Cc1c[nH]cn1)[C@@H](C)O)[C@@H](C)O)C(=O)N[C@@H](CO)C(=O)N[C@@H](CCCCN)C(=O)N[C@@H](Cc1ccc(O)cc1)C(=O)N[C@@H](CC(C)C)C(=O)N[C@@H](CC(=O)O)C(=O)NC(C)(C)C(=O)N[C@@H](CCCNC(=N)N)C(=O)N[C@@H](C)C(=O)N[C@@H](C)C(=O)N[C@H]1CCCCNC(=O)CC[C@@H](C(=O)N[C@@H](Cc2c[nH]c3ccccc23)C(=O)N[C@@H](CC(C)C)C(=O)N[C@@H](CCS(C)(=O)=O)C(=O)N[C@@H](CC(=O)O)C(=O)N[C@H](C(=O)N[C@@H](CCCCN)C(=O)N[C@@H](CCC(N)=O)C(=O)O)[C@@H](C)O)NC(=O)[C@H](C(C)C)NC(=O)[C@H](Cc2ccccc2)NC(=O)[C@H](CC(=O)O)NC1=O)C(=O)O)C(=O)O [SEQ ID NO: 24] (H-H[Aib]QGTFTSDK([γGlu-γGlu-Palmitoyl])SKYLD[Aib]RAAKDFVEWL[Met(O2)]DTKQ-OH; lactam 20-24; N-terminus assumed) | 1.2
